Data published in US20260274913A1 (Amgen, published 2026).

Columns and labels:
Assay in all cases: SPR (Biacore T200), 1:1 binding model
[1] = biological target: T1, huIL10R alpha protein #9100 (human, UniProt Q13651 22-235)
T1 construct: also called huIL10R 9100; version 9100
T1 sequence (looked up): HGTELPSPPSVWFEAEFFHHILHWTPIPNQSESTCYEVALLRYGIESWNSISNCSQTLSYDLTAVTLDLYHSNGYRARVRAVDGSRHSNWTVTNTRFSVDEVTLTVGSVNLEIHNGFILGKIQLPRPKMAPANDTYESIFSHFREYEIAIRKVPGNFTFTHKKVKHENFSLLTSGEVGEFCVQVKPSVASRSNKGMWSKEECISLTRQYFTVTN

cyTREM1 ECD = biological target: T2, cyTREM1 ECD (cynomolgus monkey, UniProt A0A2K5VHG8 21-204)
T2 construct: extracellular domain; also called cynoTREM1; cyno TREM1
T2 sequence: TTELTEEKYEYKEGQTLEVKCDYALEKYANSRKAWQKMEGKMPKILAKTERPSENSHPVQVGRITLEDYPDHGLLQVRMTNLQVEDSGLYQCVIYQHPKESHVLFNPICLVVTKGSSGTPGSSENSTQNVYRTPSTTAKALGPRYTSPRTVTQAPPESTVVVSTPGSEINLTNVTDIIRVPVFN

[2] = biological target: T3, huIL10R alpha protein #274 (human, UniProt Q13651 22-235)
T3 sequence (looked up): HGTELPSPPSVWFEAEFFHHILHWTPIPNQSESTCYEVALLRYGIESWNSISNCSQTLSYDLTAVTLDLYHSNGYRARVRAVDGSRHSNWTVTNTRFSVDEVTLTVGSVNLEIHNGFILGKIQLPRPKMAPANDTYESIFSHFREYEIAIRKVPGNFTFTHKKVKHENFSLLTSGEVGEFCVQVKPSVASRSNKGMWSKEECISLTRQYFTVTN

B1: anti-huTREM1 61B12 G4S huIL10M1 Q38E IgG-protein (other)
heavy: QVQLVQSGAEVTKPGASVKVSCKASGYTFTRYDINWVRQATGQGLEWMGWMNPNSGNSGSVQKFRGRVTMTRDTSITTVYMELSSLRSDDTAVYYCARGGISSSWHWAFDIWGQGTMVTVSSASTKGPSVFPLAPSSKSTSGGTAALGCLVKDYFPEPVTVSWNSGALTSGVHTFPAVLQSSGLYSLSSVVTVPSSSLGTQTYICNVNHKPSNTKVDKKV[human IgG1 Fc with R292C N297G V302C (EU numbers) not given here]GGGGSSPGQGTQSENSCTHFPGNLPNMLRDLRDAFSRVKTFFEMKDQLDNLLLKESLLEDFKGYLGCQALSEMIQFYLEEVMPQAENQDPDIKAHVNSLGENLKTLRLRLRRCHRFLPCENGGGSGGKSKAVEQVKNAFNKLQEKGIYKAMSEFDIFINYIEAYMTMKIRN
light: DIQMTQSPSSLSASVGDRVTITCQASQDINNHLNWYQQKPGKAPKLLIYGAYTLETGVPSRFSGSGSGTDFTFTISSLQPEDIATYYCQQYDKLPLTFGGGTKVEIKRTVAAPSVFIFPPSDEQLKSGTASVVCLLNNFYPREAKVQWKVDNALQSGNSQESVTEQDSKDSTYSLSSTLTLSKADYEKHKVYACEVTHQGLSSPVTKSFNRGEC
notes: Bivalent antibody-cytokine fusion: IgG1z SEFL2 heavy chain (desK), G4S linker, IL-10M1 mutein at the C-terminus
Q: For B1, which Kd [1] is on record?
A: The Kd was 167 nM.

Q: And the Kd (cyTREM1 ECD)?
A: The Kd was 1.14 nM.

Q: And the Kd [2]?
A: The Kd was 36.8 nM.

B2: anti-huTREM1 61B12 G4S huIL10M1 L46K IgG-protein (other)
heavy: QVQLVQSGAEVTKPGASVKVSCKASGYTFTRYDINWVRQATGQGLEWMGWMNPNSGNSGSVQKFRGRVTMTRDTSITTVYMELSSLRSDDTAVYYCARGGISSSWHWAFDIWGQGTMVTVSSASTKGPSVFPLAPSSKSTSGGTAALGCLVKDYFPEPVTVSWNSGALTSGVHTFPAVLQSSGLYSLSSVVTVPSSSLGTQTYICNVNHKPSNTKVDKKV[human IgG1 Fc with R292C N297G V302C (EU numbers) not given here]GGGGSSPGQGTQSENSCTHFPGNLPNMLRDLRDAFSRVKTFFQMKDQLDNKLLKESLLEDFKGYLGCQALSEMIQFYLEEVMPQAENQDPDIKAHVNSLGENLKTLRLRLRRCHRFLPCENGGGSGGKSKAVEQVKNAFNKLQEKGIYKAMSEFDIFINYIEAYMTMKIRN
light: DIQMTQSPSSLSASVGDRVTITCQASQDINNHLNWYQQKPGKAPKLLIYGAYTLETGVPSRFSGSGSGTDFTFTISSLQPEDIATYYCQQYDKLPLTFGGGTKVEIKRTVAAPSVFIFPPSDEQLKSGTASVVCLLNNFYPREAKVQWKVDNALQSGNSQESVTEQDSKDSTYSLSSTLTLSKADYEKHKVYACEVTHQGLSSPVTKSFNRGEC
notes: as for B1
Q: For B2, which Kd [1] is on record?
A: The Kd was 225 nM.

Q: What about the Kd (cyTREM1 ECD) of the same binder?
A: The Kd was 1.25 nM.

Q: What about the Kd [2] of the same binder?
A: Its Kd is 56.3 nM.
